{"source": "PubChem BioAssay AID651820", "about": "(National Center for Advancing Translational Sciences (NCATS), 2012)", "note": "The campaign covered roughly 340,000 compounds. About 12,000 (3.5%) were called active. The inconclusive results got no clear call from the source; some entries with a clear call stand among them for comparison. The call rests on the fitted dose curve; in most records, active means well fitted inhibition curve with a large enough effect; inconclusive means small, poorly fitted or top-dose-only effect, or another doubt; inactive means no such curve, though single readings can be large or run the other way. No potency is given beside an inconclusive call; the fits are too rough. On the % scale 0 is the no-effect control and ±100 the full control effect; potency means the concentration at half of the fitted maximal effect; tags describe the fitted curve by direction and shape."}
{"experiment": "qHTS Assay for Inhibitors of Hepatitis C Virus (HCV)", "details": "Huh7.5.1 HCVcc-Cre (HCVcc is cell-culture hepatitis C virus) infection, luciferase reporter, 44 h; activity change, negative = inhibition: at 41.8 µM (top of the series) unless noted", "summary_of_the_method": "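Infectious HCV cell culture screen: compound-treated cells (1,000/well, pre-plated 4 h) are infected with HCVcc-Cre at roughly 0.5 moi and grown 44 h. Infection is quantified by luciferase signal after 15 min substrate incubation at room temperature.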"}
{"smiles": "COc1ccc(C(=O)N2CCC(CCC(=O)Nc3cccc(C)c3)CC2)cc1", "activity change, negative = inhibition": "inactive: -15.1%"}
{"smiles": "CC(C)NC(=O)c1c2c(nc3ccccc13)CCCC2", "activity change, negative = inhibition": "inactive: 0.406%"}
{"smiles": "Cc1csc(NC(=O)C2CCCCC2)n1", "activity change, negative = inhibition": "inactive: 10.9%"}
{"smiles": "Cc1[nH]c2ccc(F)cc2c(=O)c1SC(F)(F)C(F)F", "Potency": "inconclusive [inhibitor, single point]"}
{"smiles": "COc1cc2c(cc1NC(=O)C(C)NCc1ccccc1)oc1ccccc12", "note": "(stereo unspecified)", "Potency": "inconclusive [inhibitor, partial curve]"}
{"smiles": "COc1cccc(C(=O)c2sc(NC(C)C)nc2N)c1", "Potency": "inconclusive [inhibitor, single point]"}
{"smiles": "CC(=O)c1cc(CN2CCC(n3nccc3NC(=O)c3ccccc3Cl)CC2)cs1", "activity change, negative = inhibition": "inactive: 2.88%"}
{"smiles": "Cc1ccc(C)c(N2N=C(C(=O)Nc3ccccc3N3CCCC3)CCC2=O)c1", "Potency": "inconclusive [inhibitor, single point]"}
{"smiles": "Nc1ccc(Cn2ccc3c4c(N)nc(N)nc4ccc32)cc1", "Potency": "inconclusive [inhibitor, full curve]"}
{"smiles": "O=c1cc(Nc2ccc3c(c2)OCCO3)[nH]c(=O)n1C1CCCCC1", "Potency": "inconclusive [inhibitor, single point]"}
{"smiles": "COC(=O)c1ccc(COc2ccc(F)cc2)o1", "activity change, negative = inhibition": "inactive: 18.8%"}
{"smiles": "COc1cc(NC(=O)COc2ccccc2)ccc1NC(=O)c1ccco1", "Potency": "inconclusive [inhibitor, full curve]"}
{"smiles": "CCN(CC)CCn1c(=N)n(CC(=O)c2ccc(C)cc2)c2ccccc21", "Potency": "inconclusive [inhibitor, partial curve]"}
{"smiles": "Cc1ccc(SC[C@H](Cc2ccccc2)N2CCN(CC(C)C)CCC2=O)cc1", "activity change, negative = inhibition": "inactive: -21.5%"}
{"smiles": "CCn1cc(CCC(=O)NCc2ccc(F)cc2)c2ccccc21", "Potency": "inconclusive [inhibitor, partial curve]"}
{"smiles": "C/C(=N\\NC(N)=S)c1ccc(-n2ccnc2)cc1", "activity change, negative = inhibition": "inconclusive: -31.2% [inhibitor]"}
{"smiles": "CCOc1cccc(C(=O)Nc2ccccc2OC(F)F)c1", "Potency": "inconclusive [inhibitor, single point]"}
{"smiles": "CCC1CCCCN1CC(=O)c1c(C)[nH]c2cc(C)ccc12", "note": "(stereo unspecified)", "activity change, negative = inhibition": "inactive: -4.52%"}
{"smiles": "Cc1ccc(C)c(NC(=O)c2ccccn2)c1", "Potency": "inconclusive [inhibitor, single point]"}
{"smiles": "CNC[C@@H](CC1CCCCC1)NC[C@H](CC(C)C)NCCc1cccc(C(F)(F)F)c1", "Potency": "inconclusive [inhibitor, single point]"}
{"smiles": "CCOc1ccc2nc(N3CCC(C(=O)N4CCN(c5ccccn5)CC4)CC3)sc2c1", "Potency": "active: 6.31 µM"}
{"smiles": "COc1cc(NC(=O)C2=C(C)OCCS2)c(Cl)cc1C(=O)NCCN(C)C", "Potency": "inconclusive [inhibitor, full curve]"}
{"smiles": "Cc1noc(C)c1COc1ccccc1C(=O)NCCc1ccccc1", "Potency": "active: 3.16 µM"}
{"smiles": "CS(=O)(=O)c1ccccc1C(=O)N1CCN(S(=O)(=O)c2ccc(C3CCCCC3)cc2)CC1", "Potency": "inconclusive [inhibitor, partial curve]"}
{"smiles": "Cc1c(NC(=O)CN2C(=O)NC3(CCCC3)C2=O)c(=O)n(-c2ccccc2)n1C", "activity change, negative = inhibition": "inactive: -2.99%"}
{"smiles": "CCOc1ccc(C(CCc2ccccc2)NC(=O)c2ccc(OC)c(OC)c2)cc1OCC", "note": "(stereo unspecified)", "Potency": "active: 10 µM"}
{"smiles": "CS(=O)(=O)c1ccc(C(=O)Nc2cccc(-c3nc4ccccc4[nH]3)c2)cc1", "Potency": "inconclusive [inhibitor, partial curve]"}
{"smiles": "C[C@@H](NC(=O)c1nc[nH]c1C(=O)N[C@H](C)c1ccccc1)c1ccccc1", "Potency": "inconclusive [inhibitor, partial curve]"}
{"smiles": "COc1cc(OC)c(NC(=O)c2ccc(Br)o2)cc1Cl", "Potency": "active: 11.2 µM"}
{"smiles": "O=C(CNC(=O)c1ccccc1Cl)NCCc1cccs1", "activity change, negative = inhibition": "inactive: 14.3%"}
{"smiles": "CSc1nc(-c2ccc(C)cc2)nc(C(Cl)Cl)n1", "Potency": "active: 3.16 µM"}
{"smiles": "CC(C)C(=O)Nc1cccc(C(=O)NCc2ccc3c(c2)OCO3)c1", "Potency": "inconclusive [inhibitor, partial curve, poor fit]"}
{"smiles": "CC/C(=N\\NC(=O)Nc1ccccc1)c1c(O)n(Cc2ccccc2)c(=O)[nH]c1=O", "activity change, negative = inhibition": "inactive: 17.4%"}
{"smiles": "NS(=O)(=O)c1ccc(NC(=S)NC(=O)c2ccc(Br)o2)cc1", "activity change, negative = inhibition": "inactive: -16.4%"}
{"smiles": "CC1(C)C2CCC1(C)C(SC(=N)N)C2", "note": "(stereo unspecified)", "Potency": "inconclusive [inhibitor, single point]"}
{"smiles": "CCOc1ccc2ccccc2c1/C=N/NC(=O)CNC(=O)C(c1ccccc1)c1ccccc1", "Potency": "inconclusive [inhibitor, single point]"}
{"smiles": "O=C(Nc1ccc2nc(N3CCOCC3)sc2c1)c1ccc(F)cc1", "Potency": "inconclusive [inhibitor, single point]"}
{"smiles": "CC1CCCN(S(=O)(=O)c2cc(C(=O)NCCc3ccc(S(N)(=O)=O)cc3)ccc2Cl)C1", "note": "(stereo unspecified)", "Potency": "active: 7.94 µM"}
{"smiles": "CCOC(=O)CSc1nc(-c2ccccn2)ncc1OC", "Potency": "inconclusive [inhibitor, single point]"}
{"smiles": "O=C(c1nnsc1S(=O)(=O)c1ccc(Cl)cc1)N1CCOCC1", "Potency": "inconclusive [inhibitor, single point]"}
{"smiles": "FC(F)(F)c1ccc(C2[C@H]3CN(Cc4cccnc4)[C@H](c4ccccc4)C34CC2(c2cccnc2)C4)cc1", "note": "(stereo partly specified)", "Potency": "inconclusive [inhibitor, single point]"}
{"smiles": "Cc1ccc(C)c(COC(=O)c2cccc(S(=O)(=O)N3CCCC3)c2)c1", "Potency": "inconclusive [inhibitor, single point]"}
{"smiles": "O=C(Nc1ccc2c(c1)COC2=O)c1ccc(Cl)c(Cl)c1", "activity change, negative = inhibition": "inactive: -28%"}
{"smiles": "COc1ccccc1C(=O)NCCC(=O)Nc1ccc(S(=O)(=O)N2C(C)CCCC2C)cc1", "note": "(stereo unspecified)", "Potency": "active: 10 µM"}
{"smiles": "Cc1noc(C)c1COC(=O)c1ccc(F)c(S(=O)(=O)N2CCCCC2)c1", "Potency": "inconclusive [inhibitor, partial curve]"}
{"smiles": "CCOc1ccccc1NC(=O)c1ccc2ccccc2c1", "Potency": "active: 10 µM"}
{"smiles": "COc1ccc(-c2onc3ccc(Cl)cc23)cc1", "Potency": "inconclusive [inhibitor, single point]"}
{"smiles": "O=C(c1cc(COc2ccc3ncccc3c2)on1)N1CCC(O)CC1", "Potency": "active: 8.91 µM"}
{"smiles": "Cc1ccccc1C(=O)NC1CCN(CC(=O)N2CCCCC2C)CC1", "note": "(stereo unspecified)", "Potency": "inconclusive [inhibitor, single point]"}
{"smiles": "CCCn1c(=O)c(C(=O)NNC(=O)Cc2ccccc2)c(O)c2ccccc21", "Potency": "inconclusive [inhibitor, partial curve]"}
{"smiles": "COc1ccc(OC)c(NC(=O)CC2SC(=N)N(c3ccccc3)C2=O)c1", "note": "(stereo unspecified)", "Potency": "inconclusive [inhibitor, single point]"}
{"smiles": "CCOc1ccc(C(=O)Nc2ccc(N3CCCC3)cc2)cc1", "Potency": "inconclusive [inhibitor, single point]"}
{"smiles": "CCN(CCCNC(=O)CCCn1c(=O)[nH]c2ccccc2c1=O)c1cccc(C)c1", "Potency": "inconclusive [inhibitor, single point]"}
{"smiles": "CNC(=O)c1ccsc1NC(=O)c1ccc(S(=O)(=O)N2CCc3ccccc32)cc1", "Potency": "inconclusive [inhibitor, partial curve]"}
{"smiles": "COc1ccc(CCn2c(=N)c(C(=O)NC3CCCC3)cc3c(=O)n4ccccc4nc32)cc1OC", "activity change, negative = inhibition": "inactive: 7.15%"}
{"smiles": "CSc1nsc(N/N=C/c2ccccc2)c1C#N", "activity change, negative = inhibition": "inactive: -24.3%"}
{"smiles": "Cc1ccc(-c2csc(N(CCO)CCCn3c(C(F)(F)F)nc4ccccc43)n2)cc1", "Potency": "active: 10 µM"}
{"smiles": "CC(=O)c1ccc(NC(=O)c2noc(C)c2[N+](=O)[O-])cc1", "Potency": "inconclusive [inhibitor, single point]"}
{"smiles": "CN(C)c1ccc(C(=O)NCCCSc2ccccc2)cc1", "Potency": "inconclusive [inhibitor, single point]"}
{"smiles": "Cc1ccc(NC(=O)C(C)Sc2nc3nc(C)cc(C)n3n2)cc1", "note": "(stereo unspecified)", "Potency": "inconclusive [inhibitor, single point]"}
{"smiles": "COc1ccc(CN2CCNC(=O)C2CC(=O)NCc2csc(C)n2)c(F)c1", "note": "(stereo unspecified)", "activity change, negative = inhibition": "inactive: 12.8%"}
{"smiles": "COCCn1nnnc1C(c1ccccn1)N1CCN(c2cccc(C)c2C)CC1", "note": "(stereo unspecified)", "activity change, negative = inhibition": "inactive: 0.642%"}
{"smiles": "CCCCn1c2ccc(F)cc2c2nnc(SCCN3CCCCC3)nc21", "Potency": "inconclusive [inhibitor, partial curve]"}
{"smiles": "COc1cc(NC(=O)c2sc3ncn(CC(=O)N4CCCCC4)c(=O)c3c2C)cc(OC)c1OC", "activity change, negative = inhibition": "inactive: -6.59%"}
{"smiles": "Cc1cc(C)n(S(=O)(=O)/C=C/c2ccccc2)n1", "Potency": "inconclusive [inhibitor, single point]"}
{"smiles": "CC1CC(C)CN(C(=O)c2cc(S(=O)(=O)N3CCCCC3)ccc2Cl)C1", "note": "(stereo unspecified)", "Potency": "inconclusive [inhibitor, partial curve, poor fit]"}
{"smiles": "Cc1cc(C(=O)CSc2nc3ccc(Cl)cc3[nH]2)c(C)n1C", "Potency": "inconclusive [inhibitor, single point]"}
{"smiles": "COc1ccc(-c2csc(N(CCCN(C)C)C(=O)c3ccccc3Cl)n2)cc1", "Potency": "inconclusive [inhibitor, single point]"}
{"smiles": "O=C(N/N=C/c1cccc([N+](=O)[O-])c1)C1CC(=O)N(c2ccc(Br)cc2)C1", "note": "(stereo unspecified)", "Potency": "inconclusive [inhibitor, single point]"}
{"smiles": "Cc1sc2ncn(CC(=O)Nc3ccccc3F)c(=O)c2c1-c1ccccc1", "Potency": "inconclusive [inhibitor, partial curve]"}
{"smiles": "CCN(CC)S(=O)(=O)c1ccc(/C=C/C(=O)Nc2ccccc2N2CCOCC2)cc1", "Potency": "inconclusive [inhibitor, full curve, poor fit]"}
